Values marked as one replicate rest on one cluster of the flow cell; about a third of the high ones do not repeat.
Tested on: ATP
Experiment: switch fluorescence ratio, 500 uM ATP over buffer (Cy3 cluster intensity, sum of 5 cycles each) (fold (ratio)); higher = stronger signal-on switching upon ATP binding; sequences stand for … in TCGTCGGCAGCGTCAGATGTGTATAAGAGACAGTTTTTTTTTTTTTTTTTTTTTTTTT…TC
Conditions: aptamer strand: ATP DNA aptamer (quencher-CACCTGGGGGAGTATTGCGGAGGAAGG + anchor), 100 nM annealed; ATP concentration: 500 uM; one replicate
Outline: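 Clusters with intensities outside 100-1000 RFU were excluded. The remaining Cy3-labelled switching-strand clusters on a modified Illumina MiSeq flow-cell had been annealed to 100 nM quencher-labelled ATP aptamer and imaged in selection buffer, then after 15 min with 500 uM ATP at 22 °C, for five cycles separated by NaOH stripping and re-annealing. The fluorescence ratio, averaged per switch-domain sequence, is each cluster's summed target-cycle Cy3 intensity over its summed buffer-cycle Cy3 intensity.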
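Also: ATP exposure 15 min at 22 °C before imaging.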

| Sequence | switch fluorescence ratio |
| --- | --- |
| TTTGCGACGG | 1.06 |
| CCCCAGTATC | 1.44 |
| GACGCTTAGC | 1.46 |
| TCGGAAACCT | 3.25 |
| GGGCATTACA | 1.05 |
| TCCAAATCCG | 1.05 |
| ACCACCAGTC | 1.12 |
| TGACTAGCAT | 1.1 |
| CACTACGGCG | 1.06 |
| TGCCACACGG | 1.03 |
| GGGCATGGCC | 0.982 |
| GGCATTACGA | 2.37 |
| CCGTACATAT | 2.37 |
| TCACGGCGAT | 1.2 |
| GTGGGTTGAA | 0.988 |
| TTCAATATTG | 1 |
| AAGCTAGGTT | 1.04 |
| ATGCTCTAGG | 1.02 |
| CTTGCGCCG | 1.02 |
| ATAGTAGGGT | 0.984 |
| TAACGGGGCT | 1.01 |
| CTGCATCGTG | 1.01 |

| Sequence | switch fluorescence ratio |
| --- | --- |
| ATGGCCTGCA | 1.03 |
| ATATTAGCTC | 0.989 |
| ACCAAGTTCG | 1.05 |
| CCGCGTAGC | 1.31 |
| ACCAGGGTGA | 1.23 |
| GTCGATTATG | 0.98 |
| CACGACAGAA | 1.12 |
| CGTATAGGTA | 0.962 |
| AACTCGGGCG | 0.932 |
| AAGTACAATT | 1.2 |
| AAAGGTGTGA | 0.991 |
| TATTAGTCTG | 0.968 |
| ATACGATGCG | 0.961 |
| CGGACCGCGT | 1 |
| ACGAGATACG | 1.13 |
| TAAACGGACG | 1.08 |
| CCGCTCTAGT | 1.94 |
| CTAACAGTAC | 1.6 |
| TGCGAACGAT | 1.05 |
| TTGCATGATC | 1.52 |
| GTCGTTCTCA | 0.999 |
| GCATGAGTGG | 0.972 |

| Sequence | switch fluorescence ratio |
| --- | --- |
| CCTATTTTTA | 0.971 |
| AATGAATAAC | 1.01 |
| GACCTATT | 1 |
| TAGACTAGTT | 0.966 |
| GGAAGTCTGC | 0.962 |
| GCCTGAACAT | 0.986 |
| AGCTGCTATG | 0.976 |
| GATGACATGG | 1.02 |
| CGCCGCAGGA | 4.1 |
| TGAGCGAAGA | 1.02 |
| GTTTTTCGAA | 1.01 |
| AAATTTGTCA | 1.02 |
| ACGGGGTTGA | 1.06 |
| ATAGGCCGGT | 0.989 |
| CGTCTTGTAC | 1.16 |
| CGCGCTTCGG | 0.981 |
| TCGACTGGCG | 1.07 |
| ATGGTACGTG | 1.03 |
| TTACAATTGA | 1.06 |
| TCCTTCAATG | 1.11 |
| GGCTTATGTT | 0.956 |
| GTCGGAGC | 1.05 |

| Sequence | switch fluorescence ratio |
| --- | --- |
| TAAACTCTGG | 1 |
| AAAGCCGAT | 0.976 |
| AGTCGCGGGA | 1.02 |
| TCTAGCATTC | 2.25 |
| TCCAGAATGA | 0.969 |
| AGGTCTACCT | 1.03 |
| ACCGGCTGCT | 0.992 |
| GTGTTAGTTC | 0.99 |
| TATCAGGGGC | 1.05 |
| TTCATTGCGG | 1.01 |
| TGGAATGATT | 1.09 |
| TCCACGGGAC | 1.35 |
| CGATCGGGGG | 0.989 |
| GGCGGCTATT | 1.01 |
| CGACCCGGAG | 1.1 |
| GGGTTAATCA | 1 |
| CCAGTAGTAA | 1.44 |
| CGCACAATA | 1.62 |
| TGTCCGATTA | 1.04 |
